Experimental data reported in PMC4336329 (PLoS ONE, 2015).
About 2,200 (0.71%) of roughly 310,000 compounds showed an effect of 50% or more. The effect is printed as a negative number. The list shows a part of the results.

These compounds were tested against human ether-à-go-go-related gene (hERG) potassium channel (human, UniProt Q12809) (assay: primary screen, population patch clamp on CHO cells stably expressing hERG).
Sequence of human ether-à-go-go-related gene (hERG) potassium channel (Q12809 whole entry, looked up): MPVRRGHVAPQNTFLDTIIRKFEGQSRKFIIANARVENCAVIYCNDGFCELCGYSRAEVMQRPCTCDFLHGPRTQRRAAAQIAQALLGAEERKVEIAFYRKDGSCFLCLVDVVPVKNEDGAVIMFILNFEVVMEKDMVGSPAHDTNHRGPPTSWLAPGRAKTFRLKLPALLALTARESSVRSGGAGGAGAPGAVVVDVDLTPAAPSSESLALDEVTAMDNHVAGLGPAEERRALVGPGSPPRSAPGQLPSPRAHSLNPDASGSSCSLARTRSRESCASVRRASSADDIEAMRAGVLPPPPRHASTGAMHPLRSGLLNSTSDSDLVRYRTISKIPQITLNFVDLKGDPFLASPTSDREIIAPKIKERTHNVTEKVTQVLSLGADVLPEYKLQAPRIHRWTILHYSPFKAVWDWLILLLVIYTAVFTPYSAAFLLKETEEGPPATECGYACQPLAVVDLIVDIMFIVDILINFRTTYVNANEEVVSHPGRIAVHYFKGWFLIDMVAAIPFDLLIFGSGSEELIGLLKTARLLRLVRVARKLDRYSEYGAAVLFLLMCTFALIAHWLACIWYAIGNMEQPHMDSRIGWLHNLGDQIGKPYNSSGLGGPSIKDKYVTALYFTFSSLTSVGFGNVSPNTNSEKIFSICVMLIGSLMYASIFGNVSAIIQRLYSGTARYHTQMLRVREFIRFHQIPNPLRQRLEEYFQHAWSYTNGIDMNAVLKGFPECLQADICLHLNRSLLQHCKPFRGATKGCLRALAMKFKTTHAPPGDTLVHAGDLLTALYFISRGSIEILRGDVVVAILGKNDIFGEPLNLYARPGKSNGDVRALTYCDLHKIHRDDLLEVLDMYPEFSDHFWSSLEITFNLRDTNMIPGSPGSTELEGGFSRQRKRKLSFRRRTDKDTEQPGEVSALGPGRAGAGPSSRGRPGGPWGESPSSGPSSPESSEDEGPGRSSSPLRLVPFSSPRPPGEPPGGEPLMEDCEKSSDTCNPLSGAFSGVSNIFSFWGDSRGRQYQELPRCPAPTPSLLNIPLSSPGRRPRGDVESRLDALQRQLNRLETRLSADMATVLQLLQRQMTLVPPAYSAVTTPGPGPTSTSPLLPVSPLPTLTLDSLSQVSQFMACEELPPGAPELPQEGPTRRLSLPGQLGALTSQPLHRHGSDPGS

| SMILES | hERG current change (%, negative = inhibition) at 1uM |
| --- | --- |
| COc1ccccc1NC(NC(=O)c1ccccn1)C(Cl)(Cl)Cl (stereo not drawn) | 1.41% |
| CN1CCN(Cc2nc3c(c(=O)[nH]c(=O)n3C)n2CCc2ccccc2)CC1 | -2.06% |
| COc1ccc(-n2nc(C(=O)NCC(=O)N3CCN(Cc4ccc5c(c4)OCO5)CC3)c3ccccc3c2=O)cc1OC | 5.71% |
| Cc1sc(NC(=S)NC(=O)C2CCCCC2)c(C(N)=O)c1C | 17.2% |
| O=C(N/N=C/c1cccnc1)c1cccc(NC(=O)c2cccc(Br)c2)c1 | 16.2% |
| Cc1ccc(C)c(NC(NC(=O)c2cccnc2)C(Cl)(Cl)Cl)c1 (stereo not drawn) | 11.6% |
| O=C(c1ccco1)N1CCN(C(=O)c2ccc(CS(=O)c3ccc(Cl)cc3)o2)CC1 (stereo not drawn) | 0.733% |
| COc1ccc(S(=O)(=O)NC(CC(=O)N2CCC3(CC2)OCCO3)C(C)C)cc1 (stereo not drawn) | 12.7% |
| COc1cccc(-n2c(SCC(=O)Nc3nccs3)nnc2-c2ccoc2C)c1 | -84.6% |
| Cc1ccc2cc(CN(CCCO)S(=O)(=O)c3cccc4nsnc34)c(=O)[nH]c2c1C | -4.09% |
| Cc1onc(COc2ccccc2O)c1Br | 20% |
| COc1ccc(N(C)S(=O)(=O)c2cccc(C(=O)Nc3nc(C)cs3)c2)cc1 | -0.264% |
| O=C(CCC(=O)OCC(=O)c1ccccc1)Nc1cccc2cccnc12 | 3.6% |
| CC1CC(C)(C)NC(=S)N1CCC(=O)N1CCN(Cc2ccccc2)CC1 (stereo not drawn) | 7.38% |
| Nc1nc(=S)c2ncn(C3OC(CO)C(O)C3O)c2[nH]1 (stereo not drawn) | 16.3% |
| COC(=O)N(c1ccc(OC)cc1)P1(=S)OCCC(C)O1 (stereo not drawn) | 3.42% |
| CCOC(=O)c1c(NC(=O)CSc2nnc(-c3c[nH]c4ccccc34)n2CC)sc2c1CCCC2 | 23.7% |
| O=C1C(=O)N(CCN2CCOCC2)C(c2ccc(Cl)c(Cl)c2)/C1=C(/O)c1ccc2c(c1)OCO2 (stereo not drawn) | 11.3% |
| CCCCN1C(=O)c2ccc(C(=O)Nc3cccnc3)cc2C1=O | 11.7% |
| COc1ccc2c(c1OC)C(=O)N1C2SC[C@H]1C(=O)NC1CC1 (stereo partly drawn) | 7.72% |
| CC(C)CNS(=O)(=O)c1cc(C(=O)O)c(Cl)cc1Cl | 14.7% |
| COc1ccc(NC(=O)c2ccc(COc3ccc(C)cc3)o2)cc1 | 13.4% |
| COc1cccc2cc(-c3cc(=O)oc4cc(C)c(O)cc34)oc12 | 11.5% |

| SMILES | hERG current change (%, negative = inhibition) at 1uM |
| --- | --- |
| CC12CNCC(C)(CN(C(c3ccccc3)c3ccccc3)C1)C2 | 3.71% |
| CCCCN1C(=O)NC(NC(=O)C2CC2)(C(F)(F)F)C1=O (stereo not drawn) | 7.98% |
| CCOc1ccc(N2C(=O)CN(c3cccc4ccccc34)C2=S)cc1 | -5.5% |
| O=C(CCNC(=O)Cn1ccc2ccccc2c1=O)NCCCN1CCOCC1 | 12.4% |
| CN(CCCC(=O)Nc1ccncc1)S(=O)(=O)c1ccc(Cl)cc1 | -29.8% |
| CCc1cc(C(=O)c2ccc(OC)cc2)c(NC(=O)COCC(=O)O)s1 | 12.5% |
| O=C(Cn1cnc2ccccc2c1=O)NCCC(=O)Nc1ccc2c(c1)OCO2 | 5.25% |
| COc1ccc(/C=N/NC(=O)c2c(-c3ccccc3)noc2C)cc1 | -1% |
| Cc1nc2nc(C)c(CCC(=O)N3CCOCC3)c(C)n2n1 | -31% |
| Cc1cccn2c(=O)c(/C=C(\C#N)C(N)=O)c(N3CCN(c4ccccc4)CC3)nc12 | 3.6% |
| CCCCN(CC)Cc1ccc(CNC(=S)Nc2cccc(F)c2)o1 | -3.68% |
| COc1ccc(N2CCN(C(=O)COc3ccc4ccccc4c3)CC2)cc1 | 2.24% |
| CC1(C)Cc2ccccc2C(N/N=C/c2ccc(Cl)cc2)=N1 | 16% |
| CCOc1ccc(CCNC(=O)c2cc(C)on2)cc1OCC | 11.6% |
| CC(C)C(CC(=O)NCc1ccco1)c1ccco1 (stereo not drawn) | 19.5% |
| O=C(Nc1ccccc1)NC1CCS(=O)(=O)C1 (stereo not drawn) | -5.05% |
| CNc1nc(C)c(C(=O)OCc2ccccc2)s1 | 16.5% |
| O=C(Nc1ccccc1Cl)Nc1cccc2cccnc12 | 14.2% |
| CC(=O)C1=C(O)C(=O)N(Cc2cccnc2)C1c1ccccc1Cl (stereo not drawn) | -1.41% |
| COc1ccc(C(=O)COC(=O)[C@H](C)Nc2ccc(C(F)(F)F)cc2[N+](=O)[O-])cc1 | 14% |
| CNC(C)C#Cc1ccc2sc3cc(OC)c(OC)cc3c(=O)c2c1 (stereo not drawn) | 9.32% |
| O=C1/C(=C/c2cccnc2)SC(=S)N1CC1CCCO1 (stereo not drawn) | 6.5% |
| CC(=O)N1CCN(S(=O)(=O)c2cccc(C(=O)NC3CC3)c2)CC1 | 24.8% |

| SMILES | hERG current change (%, negative = inhibition) at 1uM |
| --- | --- |
| O=C(c1ccco1)N1CCN(c2ncnc3c2[nH]c2ccc(Cl)cc23)CC1 | -70.1% |
| Cc1c(C=O)c2ccccn2c1C(=O)c1cccs1 | 15.2% |
| COc1ccccc1OCC(=O)Nc1ccccc1C(=O)NCc1ccco1 | 1.48% |
| C/C(N)=C(/C#N)C(=O)COC(=O)CCS(=O)(=O)c1ccccc1 | 13% |
| NC(=O)c1ccc(OCC2CCCO2)cc1 (stereo not drawn) | 9.85% |
| C/C(=N/NC(=O)c1sc(NS(=O)(=O)c2ccccc2)nc1C)c1ccccc1 | 3.63% |
| O=C(CN1CCCC1)N1CCCC(c2ccc(F)cc2)c2ccc(F)cc21.O=C(O)C(=O)O (stereo not drawn) | -3.04% |
| CC1(C)CC(=O)c2cnc(NCc3ccco3)nc2C1 | 11.3% |
| Cc1ccc(CNS(=O)(=O)c2ccc3c(c2)NC(=O)C(C)S3)cc1 (stereo not drawn) | 5.84% |
| Cc1ccn2cc(CC(=O)O)nc2c1 | 3.83% |
| CCOC(=O)C(CSCc1ccccc1)NC(=O)OC(C)(C)C (stereo not drawn) | -3.19% |
| CCOc1ccc(NC(=O)CN2C(=O)CSc3ccc(S(=O)(=O)N4CCCC4)cc32)cc1 | 9.95% |
| CCn1c2ccccc2c2cc(C3C(C#N)=C(N)Oc4n[nH]c(COC)c43)ccc21 (stereo not drawn) | 13.3% |
| O=S(=O)(NCCCc1ccccc1)c1ccc(Br)cc1 | 7.49% |
| CC(=O)c1cnc2c(-c3cccc(Br)c3)cnn2c1C | 10.9% |
| CCCC(=O)NC(Nc1ccc(S(=O)(=O)Nc2cc(C)on2)cc1)(C(=O)OCC)C(F)(F)F (stereo not drawn) | 23.1% |
| O=C(Nc1ccccn1)c1ccc(Cl)c([N+](=O)[O-])c1 | 12.4% |
| S=C1NC[C@H](Cc2ccccc2)N1CCc1cccc2ccccc12 | 19.2% |
| O=C(N/N=C/c1ccc(O)cc1O)C(=O)N/N=C/c1ccc(O)cc1O | 12.1% |
| CC(c1ccccc1)N1CC(C(=O)O)CC1=O (stereo not drawn) | 11.6% |
| COc1ccc(CCNC2CC(=O)N(C)C2=O)cc1OC (stereo not drawn) | 1.99% |
| Cc1cc(C)c(NC(=O)CS)c(Cl)c1 | -5.08% |
| O=C(CN1CCN(C(=O)c2ccccc2)CC1)Nc1cc(S(=O)(=O)N2CCCC2)ccc1Cl | -15.7% |

| SMILES | hERG current change (%, negative = inhibition) at 1uM |
| --- | --- |
| O=[N+]([O-])c1ccc(C(O)CSC(=S)N2CCCCC2)cc1 (stereo not drawn) | 13.5% |
| Cc1ccc(C)c(S(=O)(=O)NCC(c2ccco2)N2CCc3ccccc3C2)c1 (stereo not drawn) | 1.75% |
| CCOc1cc(C)c(Cl)cc1S(=O)(=O)N1CCCC1 | 1.64% |
| CCOc1ccc(CN(C)CC(=O)Nc2ccc3c(c2)CCC3)cc1OC | 0.23% |
| Cc1ccc(CNC2CCCCC2)s1.Cl | 5.81% |
| O=C1C(Cl)=C(N2CCCCC2)C(=O)N1c1ccccc1 | 10.1% |
| COc1cc(NC(=O)CCc2nc(-c3cccs3)no2)cc(OC)c1OC | 9.53% |
| COc1ccc(C(=S)N2CCOCC2)cc1OC(=O)c1ccc(C)cc1 | 9.36% |
| N#Cc1c(NC(=O)c2ccc([N+](=O)[O-])o2)sc2c1CCC2 | 17.5% |
| O=C(NC(CC(=O)N1CCN(c2ccccc2)CC1)c1ccccc1)c1ccccc1Cl (stereo not drawn) | -19.6% |
| COC(=O)c1ccc(S(N)(=O)=O)o1 | -3.32% |
| O=C1CC[C@H](N2C(=O)c3ccccc3C2=O)C(=O)N1 | 11.9% |
| O=C(NCC1CCCO1)c1cc(-c2ccc(F)cc2)no1 (stereo not drawn) | 7.69% |
| O=C1/C(=C/c2ccc(F)cc2)SC(=S)N1Nc1ncc(C(F)(F)F)cc1Cl | 6.37% |
| CCCCOc1ccc(/C=C/C(=O)NC2=Nc3ccccc3NC(C)=C2C(=O)OCC)cc1OC | 9.67% |
| COc1ccc(C(=O)Nc2ccccc2C(=O)Nc2ccccn2)cc1 | 12.3% |
| C/C(N)=C(/C#N)C(=O)CSc1nnc(COc2ccccc2Cl)o1 | 11.7% |
| COC(=O)c1cc(NS(=O)(=O)c2ccc(N3CCOCC3)c(N)c2)cc(C(=O)OC)c1 | 7.74% |
| NC(=O)C(=O)N/N=C/c1cccc(C(F)(F)F)c1 | 10.2% |
| C/C(=N\NC(=O)c1cc2c(s1)CCC(C)C2)c1cccnc1 (stereo not drawn) | 9.72% |
| O=C1CC(c2cccs2)c2cc3c(cc2N1)OCCO3 (stereo not drawn) | 10.2% |
